Experimental data published in the supplement of paper PMC9542798.

Experiments:
Experiment in all cases: minimum inhibitory concentration
Chloramphenicol = compound: O=C(N[C@H](CO)[C@H](O)c1ccc([N+](=O)[O-])cc1)C(Cl)Cl [Chloramphenicol]
Method: (§1)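 Broth microdilution MIC per ISO 10932 on precoated VetMIC Lact-1 plates (tylosin, vancomycin and ampicillin plates prepared manually) against lactic acid bacteria and bifidobacteria isolates. Plates were read visually after 48 h anaerobic incubation (bifidobacteria 72 h; enterococci and staphylococci 24 h aerobic) at species-specific temperatures of 30 or 37 °C. Values prefixed with < or > are outside the tested dilution range.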

Erythromycin = compound: CC[C@H]1OC(=O)[C@H](C)[C@@H](O[C@H]2C[C@@](C)(OC)[C@@H](O)[C@H](C)O2)[C@H](C)[C@@H](O[C@@H]2O[C@H](C)C[C@H](N(C)C)[C@H]2O)[C@](C)(O)C[C@@H](C)C(=O)[C@H](C)[C@@H](O)[C@]1(C)O [Erythromycin]
Method: as §1

Gentamicin = compound: CNC(C)C1CCC(N)C(OC2C(N)CC(N)C(OC3OCC(C)(O)C(NC)C3O)C2O)O1 [Gentamicin]
Method: as §1

Streptomycin = compound: CN[C@@H]1[C@H](O[C@H]2[C@H](O[C@H]3[C@H](O)[C@@H](O)[C@H](N=C(N)N)[C@@H](O)[C@@H]3N=C(N)N)O[C@@H](C)[C@]2(O)C=O)O[C@@H](CO)[C@H](O)[C@H]1O [Streptomycin]
Method: as §1

Kanamycin = compound: NC[C@H]1O[C@H](O[C@H]2[C@H](O)[C@@H](O[C@H]3O[C@H](CO)[C@@H](O)[C@H](N)[C@H]3O)[C@H](N)C[C@@H]2N)[C@H](O)[C@@H](O)[C@@H]1O [Kanamycin]
Method: as §1

Clindamycin = compound: CCC[C@@H]1C[C@@H](C(=O)N[C@@H]([C@H]2O[C@H](SC)[C@H](O)[C@@H](O)[C@H]2O)[C@H](C)Cl)N(C)C1 [Clindamycin]
Method: as §1

Ampicillin = compound: CC1(C)S[C@@H]2[C@H](NC(=O)[C@H](N)c3ccccc3)C(=O)N2[C@H]1C(=O)O [Ampicillin]
Method: as §1

Neomycin = compound: NC[C@@H]1O[C@H](O[C@H]2[C@@H](O)[C@H](O[C@@H]3[C@@H](O)[C@H](N)C[C@H](N)[C@H]3O[C@H]3O[C@H](CN)[C@@H](O)[C@H](O)[C@H]3N)O[C@@H]2CO)[C@H](N)[C@@H](O)[C@@H]1O [Neomycin]
Method: as §1

Tylosin = compound: CC[C@H]1OC(=O)C[C@@H](O)[C@H](C)[C@@H](O[C@@H]2O[C@H](C)[C@@H](O[C@H]3C[C@@](C)(O)[C@@H](O)[C@H](C)O3)[C@H](N(C)C)[C@H]2O)[C@@H](CC=O)C[C@@H](C)C(=O)/C=C/C(C)=C/[C@@H]1CO[C@@H]1O[C@H](C)[C@@H](O)[C@@H](OC)[C@H]1OC [Tylosin]
Method: as §1

Vancomycin = compound: CN[C@H](CC(C)C)C(=O)N[C@H]1C(=O)N[C@@H](CC(N)=O)C(=O)N[C@H]2C(=O)N[C@H]3C(=O)N[C@H](C(=O)N[C@H](C(=O)O)c4cc(O)cc(O)c4-c4cc3ccc4O)[C@H](O)c3ccc(c(Cl)c3)Oc3cc2cc(c3O[C@@H]2O[C@H](CO)[C@@H](O)[C@H](O)[C@H]2O[C@H]2C[C@](C)(N)[C@H](O)[C@H](C)O2)Oc2ccc(cc2Cl)[C@H]1O [Vancomycin]
Method: as §1

Tetracycline = compound: CN(C)[C@@H]1C(O)=C(C(N)=O)C(=O)[C@@]2(O)C(O)=C3C(=O)c4c(O)cccc4[C@@](C)(O)[C@H]3C[C@@H]12 [Tetracycline]
Method: as §1
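Note: isolates derived from commercial starter, protective, probiotic or feed-additive cultures, from fermented products, from human gut mucosa or feces, and from human milk or colostrum.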

Work on “Enterococcus faecium IM1309 (strain group: non-starter strains)” yielded a minimum inhibitory concentration (Chloramphenicol) of 4 µg/mL, a minimum inhibitory concentration (Erythromycin) of 2 µg/mL and a minimum inhibitory concentration (Gentamicin) of 16 µg/mL. For the same test system, the minimum inhibitory concentration (Streptomycin) was 64 µg/mL, the minimum inhibitory concentration (Kanamycin) was 128 µg/mL and the minimum inhibitory concentration (Clindamycin) was 0.5 µg/mL. For the same test system, the minimum inhibitory concentration (Ampicillin) was 0.25 µg/mL, the minimum inhibitory concentration (Neomycin) was 8 µg/mL and the minimum inhibitory concentration (Tylosin) was 1 µg/mL. It also gave a minimum inhibitory concentration (Vancomycin) of 1 µg/mL and a minimum inhibitory concentration (Tetracycline) of 0.5 µg/mL.

“Enterococcus faecium IM312 (strain group: probiotic strains)” was tested, and the minimum inhibitory concentration (Chloramphenicol) was 4 µg/mL, the minimum inhibitory concentration (Erythromycin) was 8 µg/mL and the minimum inhibitory concentration (Gentamicin) was 8 µg/mL. The minimum inhibitory concentration (Streptomycin) was 32 µg/mL, the minimum inhibitory concentration (Kanamycin) was 128 µg/mL and the minimum inhibitory concentration (Clindamycin) was 0.5 µg/mL. The minimum inhibitory concentration (Ampicillin) was 1 µg/mL, the minimum inhibitory concentration (Neomycin) was 8 µg/mL and the minimum inhibitory concentration (Tylosin) was 2 µg/mL. It also gave a minimum inhibitory concentration (Vancomycin) of 1 µg/mL and a minimum inhibitory concentration (Tetracycline) of 0.5 µg/mL.

“Enterococcus faecalis IM1316 (strain group: non-starter strains)” showed a minimum inhibitory concentration (Chloramphenicol) of 4 µg/mL, a minimum inhibitory concentration (Erythromycin) of 1 µg/mL and a minimum inhibitory concentration (Gentamicin) of 16 µg/mL. The minimum inhibitory concentration (Streptomycin) was 128 µg/mL, the minimum inhibitory concentration (Kanamycin) was 64 µg/mL and the minimum inhibitory concentration (Clindamycin) was 2 µg/mL. The minimum inhibitory concentration (Ampicillin) was 2 µg/mL, the minimum inhibitory concentration (Neomycin) was 64 µg/mL and the minimum inhibitory concentration (Tylosin) was 1 µg/mL. For the same test system, the minimum inhibitory concentration (Vancomycin) was 2 µg/mL and the minimum inhibitory concentration (Tetracycline) was 0.5 µg/mL.

“Enterococcus durans IM807 (strain group: probiotic strains)” showed a minimum inhibitory concentration (Chloramphenicol) of 8 µg/mL, a minimum inhibitory concentration (Erythromycin) of over 8 µg/mL and a minimum inhibitory concentration (Gentamicin) of 64 µg/mL. It also gave a minimum inhibitory concentration (Streptomycin) of 128 µg/mL, a minimum inhibitory concentration (Kanamycin) of 1020 µg/mL and a minimum inhibitory concentration (Clindamycin) of over 16 µg/mL. The minimum inhibitory concentration (Ampicillin) was 4 µg/mL, the minimum inhibitory concentration (Neomycin) was 32 µg/mL and the minimum inhibitory concentration (Tylosin) was 8 µg/mL. For the same test system, the minimum inhibitory concentration (Vancomycin) was 1 µg/mL and the minimum inhibitory concentration (Tetracycline) was 0.5 µg/mL.

“Enterococcus faecalis IM1318 (strain group: non-starter strains)” gave a minimum inhibitory concentration (Chloramphenicol) of 8 µg/mL, a minimum inhibitory concentration (Erythromycin) of 1 µg/mL and a minimum inhibitory concentration (Gentamicin) of 64 µg/mL. For the same test system, the minimum inhibitory concentration (Streptomycin) was 128 µg/mL, the minimum inhibitory concentration (Kanamycin) was 128 µg/mL and the minimum inhibitory concentration (Clindamycin) was over 16 µg/mL. The minimum inhibitory concentration (Ampicillin) was 2 µg/mL, the minimum inhibitory concentration (Neomycin) was 128 µg/mL and the minimum inhibitory concentration (Tylosin) was 1 µg/mL. It also gave a minimum inhibitory concentration (Vancomycin) of 2 µg/mL and a minimum inhibitory concentration (Tetracycline) of 1 µg/mL.
